# Data as given in PubChem BioAssay AID504332 (National Center for Advancing Translational Sciences (NCATS), 2011).
# The campaign covered roughly 350,000 compounds. About 31,000 (8.9%) were called active. This list was built around the results that the source calls inconclusive (neither active nor inactive); the mix of calls is not that of the screen. Calls follow the shape of the dose curve; as a rule, active = well fitted inhibition curve with a large enough effect; inconclusive = small, poorly fitted or top-dose-only effect; inactive = no such curve, though single readings can be large or run the other way. Where the call is inconclusive, the potency comes from a doubtful curve fit.
# Molecular target: Histone-lysine N-methyltransferase EHMT2 (Homo sapiens) (UniProt Q96KQ7)
# Chain of UniProt Q96KQ7 (Q96KQ7 whole entry, looked up): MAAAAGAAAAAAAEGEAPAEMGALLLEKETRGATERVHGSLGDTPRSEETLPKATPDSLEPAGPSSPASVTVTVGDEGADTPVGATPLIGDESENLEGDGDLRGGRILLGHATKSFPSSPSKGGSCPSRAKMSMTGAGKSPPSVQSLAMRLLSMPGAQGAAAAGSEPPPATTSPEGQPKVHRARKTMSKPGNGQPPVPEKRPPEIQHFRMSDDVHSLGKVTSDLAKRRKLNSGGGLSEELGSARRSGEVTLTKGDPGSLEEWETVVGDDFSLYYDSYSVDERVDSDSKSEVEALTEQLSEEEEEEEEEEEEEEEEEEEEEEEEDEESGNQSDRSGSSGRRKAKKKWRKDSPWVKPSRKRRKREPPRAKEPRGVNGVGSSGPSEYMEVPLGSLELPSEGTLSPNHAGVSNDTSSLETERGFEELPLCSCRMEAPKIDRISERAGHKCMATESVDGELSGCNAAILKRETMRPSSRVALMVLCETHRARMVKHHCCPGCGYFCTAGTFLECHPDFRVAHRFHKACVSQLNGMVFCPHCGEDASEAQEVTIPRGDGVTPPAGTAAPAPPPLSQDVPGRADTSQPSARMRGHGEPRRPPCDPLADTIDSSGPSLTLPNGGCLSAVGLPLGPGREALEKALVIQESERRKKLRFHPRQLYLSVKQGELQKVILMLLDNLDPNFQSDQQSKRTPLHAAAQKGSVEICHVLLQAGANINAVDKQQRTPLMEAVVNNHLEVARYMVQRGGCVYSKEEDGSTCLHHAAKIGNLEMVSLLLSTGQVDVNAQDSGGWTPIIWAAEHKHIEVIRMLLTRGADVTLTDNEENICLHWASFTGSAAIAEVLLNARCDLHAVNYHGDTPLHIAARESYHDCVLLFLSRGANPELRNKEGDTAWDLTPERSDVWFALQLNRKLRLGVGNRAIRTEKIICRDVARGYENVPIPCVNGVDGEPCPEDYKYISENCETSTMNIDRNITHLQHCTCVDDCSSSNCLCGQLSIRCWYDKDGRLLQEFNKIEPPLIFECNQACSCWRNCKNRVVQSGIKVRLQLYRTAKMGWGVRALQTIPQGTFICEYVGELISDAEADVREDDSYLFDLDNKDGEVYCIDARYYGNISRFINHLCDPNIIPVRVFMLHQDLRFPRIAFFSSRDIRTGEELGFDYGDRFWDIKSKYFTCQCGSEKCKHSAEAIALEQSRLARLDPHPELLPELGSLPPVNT
# Test: qHTS Assay for Inhibitors of Histone Lysine Methyltransferase G9a; also: nearly all actives have a fitted effect of over 75% in size
# Details: G9a H3K9 monomethylation, AlphaScreen, 2 h; activity, negative = inhibition: at 59 µM (top of the series) unless noted
# Summary of the method: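 Readings reflect AlphaScreen signal from monomethyl-H3K9 antibody detection. HMT at 20 nM; substrate b-H3K9 500 nM; cofactor SAM 20 uM; 2 h RT reaction; compounds tested as titrations in qHTS with 15 min preincubation.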
# % is scaled to controls: 0 for no effect and ±100 for the full control effect; potency is read from the fitted curve at half-maximal effect; tags tell the direction and shape of the fitted curve.
SMILES,"activity, negative = inhibition",Potency
COc1ccc(OC)c(-c2[nH]nc3c2C(c2ccco2)C(C#N)=C(N)O3)c1 (stereo not given),inconclusive: -66.7% [inhibitor],–
c1ccc(-c2cc(-c3ccccc3)on2)cc1,inactive: 23.1% [at 102 µM],–
CCCCN(CCCC)CCNC(=O)Cn1nc(CC)n2c(cc3sccc32)c1=O,inactive: 35%,–
CCOC(=O)c1sc(NC(=O)CSc2ncn(-c3ccccc3)n2)nc1C,–,"inconclusive: 25.1 µM [inhibitor, partial curve, poor fit]"
CCc1ccc(C(=O)CC2(O)C(=O)N(CCc3ccccc3)c3ccc(Br)cc32)cc1 (stereo not given),–,"inconclusive: 28.2 µM [inhibitor, single point]"
NS(=O)(=O)c1ccc(NC(=S)NC(=O)C2CCCCC2)cc1,–,"inconclusive: 39.8 µM [inhibitor, partial curve, poor fit]"
CC(C)CCSc1nc2c(c(=O)[nH]c(=O)n2C)n1CCc1ccccc1,–,"inconclusive: 31.6 µM [inhibitor, single point]"
CCOC(=O)c1ccc(CNC(=O)c2cc(C(C)(C)C)oc2C)o1,inconclusive: -61.7% [inhibitor],–
COc1cccc(/C=C2\SC(=S)N(CCCC(=O)N(CCO)c3ccccc3)C2=O)c1,–,"inconclusive: 31.6 µM [inhibitor, partial curve, poor fit]"
Nc1nc(NCCO)nc(N2CCCCCC2)c1[N+](=O)[O-],inactive: -8.93% [at 102 µM],–
Cc1occc1C(=O)Nc1cccnc1,–,"inconclusive: 89.1 µM [inhibitor, single point]"
O=C(O)CC1(CC(=O)NCc2ccncc2)CCCCC1,–,"inconclusive: 39.8 µM [inhibitor, partial curve]"
COc1ccc(-n2nc3ccc(NC(=O)c4c(OC)cccc4OC)cc3n2)cc1,inactive: 31.1%,–
Cn1c(=O)cc(OCC(=O)NCc2cccnc2)c2ccccc21,inconclusive: -64.2% [inhibitor] [at 0.0925 µM],–
CCCCCCCCCC(=O)NC(CN1CCOCC1)[C@H](O)c1ccccc1 (stereo not given in full),inactive: 28.4% [at 12.7 µM],–
COc1ccc(N=C2SC(CC(=O)Nc3ccc(F)cc3)C(=O)N2Cc2ccco2)cc1 (stereo not given),–,"inconclusive: 25.1 µM [inhibitor, single point]"
CCOC(=O)C1=C(OCc2ccc(Cl)cc2)C2C=C(C)C=CC2N=C1 (stereo not given),–,"inconclusive: 100 µM [inhibitor, single point]"
COc1cc(=O)[nH]c(SCC(=O)Nc2ccc3ccccc3c2)n1,inactive: -2.65% [at 102 µM],–
O=C(c1cc2ccccc2o1)N1CCN(S(=O)(=O)c2ccc(Cl)s2)CC1,inactive: 0.973% [at 2.33 µM],–
COc1ccc(CSc2nc3ccncc3n2CC(=O)Nc2cc(C)cc(C)c2)cc1,–,"inconclusive: 3.55 µM [inhibitor, partial curve, poor fit]"
